Source: the supplement of paper PMC4166925
± gives the standard deviation of the averaged measurements. Over roughly 33,000 sequences, “E-score (dimensionless, -0.5 to 0.5)” has its median near -0.049; the highest 2% begin near 0.37. Some of the results follow.

What follows are sequences tested on T1, PmTbr T-box DNA-binding domain (GST fusion) (assay: PBM E-score of 8-mer (E-score (dimensionless, -0.5 to 0.5)); Tbr is Tbrain of the sea star Patiria miniata (Pm) or the sea urchin Strongylocentrotus purpuratus (Sp); higher = stronger binding preference; most listed sequences are background and not binding sites). Conditions: the construct has about 5 more residues each side.
T1 sequence: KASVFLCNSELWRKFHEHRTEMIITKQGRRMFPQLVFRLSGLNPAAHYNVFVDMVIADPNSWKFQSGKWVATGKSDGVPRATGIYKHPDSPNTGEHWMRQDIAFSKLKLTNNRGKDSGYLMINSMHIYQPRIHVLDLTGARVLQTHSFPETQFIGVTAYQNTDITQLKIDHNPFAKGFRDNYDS
How it was run: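 Using the Universal PBM Analysis Suite, every ungapped 8-mer received an enrichment E-score averaged over duplicate arrays. Probe intensities came from double-stranded Universal Agilent oligonucleotide arrays incubated with 200 nM GST-fused Tbr T-box DNA-binding domain in PBS (pH 7.5). That protein was expressed in BL21 E. coli at 20 °C and purified by glutathione affinity chromatography.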

Sequence	PBM E-score of 8-mer
AAAACCAT	0.0108 ± 0.067
AGATGTGC	0.163 ± 0.018
AGCACCAG	0.0646 ± 0.048
GCACCACA	0.133 ± 0.047
TAACGAGA	-0.0247 ± 0.016
CCGCCTCC	0.112 ± 0.033
AACTTACT	-0.0624 ± 0.06
GGAATGCC	-0.137 ± 0.055
ACGCCAGG	0.0268 ± 0.0071
CCGATGTC	-0.155 ± 0.077
CAGCTAAC	0.106 ± 0.0085
TCATCTCA	0.021 ± 0.0039
ATATCTTA	0.0978 ± 0.059
ACACTGGG	-0.0889 ± 0.057
ACCTAGGA	0.114 ± 0.021
GCCGGCAA	-0.0351 ± 0.026
CTATTGTA	-0.308 ± 0.038
AAAGGGAG	-0.101 ± 0.018
CGCTTGTA	-0.116 ± 0.0057
GAGTCACC	0.0547 ± 0.0061
CACCTGTA	0.391 ± 0.009
GGAGGCAC	-0.167 ± 0.081

Sequence	PBM E-score of 8-mer
ACTTACCG	-0.129 ± 0.011
ATACAAAG	-0.123 ± 0.0031
ACACAACG	0.219 ± 0.041
ATCGGTGC	-0.0144 ± 0.081
AATCATTC	-0.0705 ± 0.015
ACTAGACC	-0.3241 ± 0.0027
AACTCGCC	0.129 ± 0.049
CGAGGGCA	-0.019 ± 0.015
GCACACGA	-0.135 ± 0.041
ATCGCTAA	0.184 ± 0.026
AGACCGAA	-0.308 ± 0.011
GAATAGAA	-0.0368 ± 0.083
CTGCTAAG	0.108 ± 0.0053
GATATCGC	0.251 ± 0.0074
ACGCATGG	-0.144 ± 0.075
ACGTACGG	-0.0629 ± 0.007
GTGGGTCA	-0.104 ± 0.09
AAGGCATA	-0.153 ± 0.027
AAGGCAGT	-0.072 ± 0.0083
AAGCCGTA	-0.239 ± 0.029
ATAAGCCC	-0.277 ± 0.0059
GGATACGA	0.0693 ± 0.066

Sequence	PBM E-score of 8-mer
CCCCAAAA	-0.0808 ± 0.0076
ATATACGG	-0.038 ± 0.039
CATCTAGG	0.0133 ± 0.015
CTTCGTAA	0.0116 ± 0.018
CCTAATAA	-0.0602 ± 0.091
ATGATAAA	0.155 ± 0.005
CCTCAGGA	-0.173 ± 0.026
ACTCTTTC	-0.00346 ± 0.013
CCTTCTGA	-0.192 ± 0.11
ATCTAGAA	-0.133 ± 0.024
AAAACCCA	-0.0352 ± 0.12
GCTCGCAA	0.242 ± 0.015
ACTGGGTG	0.127 ± 0.012
ACTCGATG	-0.102 ± 0.018
CAGGCCTG	-0.29 ± 0.0073
CGCAGGGA	-0.176 ± 0.04
AGTGTAGA	0.0847 ± 0.056
TACCCCTA	-0.165 ± 0.015
CGCAAGCG	-0.0285 ± 0.014
GGTCGGAC	-0.34 ± 0.0058
ATATCAAA	-0.149 ± 0.13
TAGATCTA	-0.0688 ± 0.056

Sequence	PBM E-score of 8-mer
AGCCGTTC	-0.059 ± 0.063
CTGCATTC	-0.162 ± 0.0018
AAGTCGTC	0.0699 ± 0.0037
CAACACAC	0.251 ± 0.01
GACAGAGC	-0.242 ± 0.038
AAAAAGGG	-0.231 ± 0.041
AGGGAAAA	-0.317 ± 0.056
AGAGGGTC	-0.202 ± 0.011
AACTGGGA	-0.1294 ± 0.00035
GCTACCCA	-0.114 ± 0.0049
GCTGGCCA	-0.156 ± 0.054
ACAGACAA	-0.0199 ± 0.026
CCTACTTA	0.126 ± 0.084
AGACGGGC	-0.162 ± 0.093
AAGTCTCT	0.00628 ± 0.02
CAATGTGA	0.234 ± 0.051
GAGCTCAC	0.00877 ± 0.045
ATCTACAG	-0.17 ± 0.064
TATGCGGA	-0.2886 ± 0.0024
ACGGATTC	-0.0597 ± 0.066
